Results: PMC4336329 (PLoS ONE, 2015)
Screen size: about 310,000 compounds; about 2,200 (0.71%) showed an effect of 50% or more. The effect is printed as a negative number. This is one part of the list.

molecular target: human ether-à-go-go-related gene (hERG) potassium channel (human, UniProt Q12809); assay: primary screen, population patch clamp on CHO cells stably expressing hERG
Sequence (Q12809 whole entry, looked up): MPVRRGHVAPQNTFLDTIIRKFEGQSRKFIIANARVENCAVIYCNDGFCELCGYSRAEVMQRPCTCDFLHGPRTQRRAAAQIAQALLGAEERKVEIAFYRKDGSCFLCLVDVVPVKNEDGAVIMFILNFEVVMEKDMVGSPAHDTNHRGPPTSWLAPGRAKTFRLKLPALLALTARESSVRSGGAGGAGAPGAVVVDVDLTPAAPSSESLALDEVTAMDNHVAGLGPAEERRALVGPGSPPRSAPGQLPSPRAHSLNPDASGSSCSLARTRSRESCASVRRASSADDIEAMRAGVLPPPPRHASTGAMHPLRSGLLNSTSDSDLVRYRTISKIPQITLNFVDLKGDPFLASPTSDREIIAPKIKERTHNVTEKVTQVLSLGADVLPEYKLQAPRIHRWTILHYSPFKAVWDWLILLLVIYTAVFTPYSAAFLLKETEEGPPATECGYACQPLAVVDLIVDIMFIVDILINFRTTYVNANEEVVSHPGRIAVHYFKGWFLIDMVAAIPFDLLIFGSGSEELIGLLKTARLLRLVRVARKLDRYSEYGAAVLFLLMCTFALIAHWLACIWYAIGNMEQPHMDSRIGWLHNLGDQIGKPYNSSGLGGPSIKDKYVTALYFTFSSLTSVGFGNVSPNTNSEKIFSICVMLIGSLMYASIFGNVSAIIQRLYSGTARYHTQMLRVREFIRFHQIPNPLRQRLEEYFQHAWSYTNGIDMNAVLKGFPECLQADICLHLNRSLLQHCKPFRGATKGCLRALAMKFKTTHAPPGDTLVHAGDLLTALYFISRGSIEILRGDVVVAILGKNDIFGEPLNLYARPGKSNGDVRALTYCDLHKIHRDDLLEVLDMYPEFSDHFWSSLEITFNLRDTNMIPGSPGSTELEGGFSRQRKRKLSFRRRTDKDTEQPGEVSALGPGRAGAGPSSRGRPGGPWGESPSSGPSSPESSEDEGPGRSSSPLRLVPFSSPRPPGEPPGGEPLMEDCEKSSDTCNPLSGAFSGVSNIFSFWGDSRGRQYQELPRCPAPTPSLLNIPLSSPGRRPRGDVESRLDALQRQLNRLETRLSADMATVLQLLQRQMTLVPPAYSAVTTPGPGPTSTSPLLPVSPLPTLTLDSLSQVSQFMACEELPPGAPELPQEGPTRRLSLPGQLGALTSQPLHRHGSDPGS

Compared with `CCCCN(CCCC)C(=O)/C=C/c1cccc([N+](=O)[O-])c1`, `O=C(/C=C/Nc1ccc([N+](=O)[O-])cc1Br)c1cccc2ccccc12` is higher in “hERG current change (%, negative = inhibition) at 1uM” value: -27.2% for the first, 4.86% for the second.

Compared with `CCc1ccc(OCC(=O)Nc2ccncc2)cc1`, `CCCOc1ccc(CNC(=O)Cc2cccs2)cc1` is higher in “hERG current change (%, negative = inhibition) at 1uM” value: 12.4% for the first, 17.9% for the second.

Going from `CCN(CC)c1ccc(/C=N/NC(=O)Nc2ccccc2)cc1` to `CCN(CC)c1ccc2cc(-c3nc4ccccc4[nH]3)c(=O)oc2c1`, the “hERG current change (%, negative = inhibition) at 1uM” value rises from 9.97% to 16.2%.

Going from `CCOC(CNC(=O)c1cccn2c(=O)c3c(C)c(C)sc3nc12)OCC` to `CCOC(=O)c1[nH]c(C)c(C(=O)Nc2ccccc2C)c1C`, the “hERG current change (%, negative = inhibition) at 1uM” value rises from -21.5% to 5.7%.

Compared with `COc1ccc(CNC(=O)C2CC(c3ccccc3[N+](=O)[O-])=NO2)cc1` (stereo not drawn), `COc1ccc(S(=O)(=O)NCC(=O)N(CC(=O)NCC2CCCO2)c2ccccc2C)cc1` (stereo not drawn) is higher in “hERG current change (%, negative = inhibition) at 1uM” value: -3.45% for the first, 3.46% for the second.

First: Cc1ccc(OCc2nc(C#N)c(NCc3ccc4c(c3)OCO4)o2)cc1
Second: COc1ccc(Cn2c(=O)[nH]c3cc(C(=O)NCc4ccc5c(c4)OCO5)ccc3c2=O)cc1
The “hERG current change (%, negative = inhibition) at 1uM” value of the first is lower: 5.63% for the first, 8.12% for the second.

First: Cc1cc(C)c(S(=O)(=O)N2CCCC(C(=O)NCc3ccccn3)C2)c(C)c1 (stereo not drawn)
Second: COc1c(C)cc(C(=O)C2CCCN(C(=O)C3=C(C)OCCO3)C2)cc1C (stereo not drawn)
The “hERG current change (%, negative = inhibition) at 1uM” value of the first is higher: 7.3% for the first, 3.6% for the second.

First: COC(=O)c1cc2ccccc2n1S(=O)(=O)c1ccccc1
Second: O=C(NCc1cccnc1)c1ccc(NS(=O)(=O)c2ccccc2)cc1
The “hERG current change (%, negative = inhibition) at 1uM” value of the first is higher: 8.3% for the first, -1.38% for the second.

First: CCOc1ccc(/C=C/C(=O)c2c(O)c3ccccc3oc2=O)cc1
Second: CCOc1ccc(S(=O)(=O)NCCC(=O)NCc2cccnc2)cc1
The “hERG current change (%, negative = inhibition) at 1uM” value of the first is lower: 2.24% for the first, 11.8% for the second.

Compared with `CCCOP(=O)(c1ccc(N(C)C)cc1)C(O)c1ccc(Cl)cc1` (stereo not drawn), `COc1cc(/C=N/OCC(=O)Nc2cc(C)cc(C)c2)ccc1OCc1ccc(Cl)cc1` is lower in “hERG current change (%, negative = inhibition) at 1uM” value: 14.9% for the first, -11.4% for the second.

Compared with `OCCC1CN(Cc2cccc(OC3CCCC3)c2)CCN1Cc1ccsc1` (stereo not drawn), `CN(Cc1ccccc1)C(=O)c1ccc(NC(=O)Cc2cccc(NC(=O)C3CCCN(C(=O)C4CCCC4)C3)c2)cc1` (stereo not drawn) is higher in “hERG current change (%, negative = inhibition) at 1uM” value: -15.4% for the first, 9.95% for the second.

Compared with `CC(C)(Oc1ccc(-c2ccco2)cc1)C(=O)O`, `COc1ccc(C(=O)NNC(=O)C(C)NC(=O)c2ccccc2NC(=O)c2ccco2)cc1` (stereo not drawn) is higher in “hERG current change (%, negative = inhibition) at 1uM” value: 8.94% for the first, 19.3% for the second.

Going from `CC(C)CNS(=O)(=O)c1ccc2c(c1)OCCO2` to `CC(Sc1ccc2c(c1)OCCO2)C(=O)Nc1ncc(Cl)cc1Cl` (stereo not drawn), the “hERG current change (%, negative = inhibition) at 1uM” value rises from -4.22% to 10.6%.

Going from `O=C(O)CCn1c(C(=O)O)cc2sccc21` to `Cc1cccc(C(=O)NC(=S)Nc2ccccc2C(=O)O)c1`, the “hERG current change (%, negative = inhibition) at 1uM” value falls from 15.2% to 6.08%.

Going from `N#CCC(=O)N1CCN(Cc2ccc3c(c2)OCO3)CC1` to `O=C(Nc1ccc2c(c1)OCO2)N1CCN(c2ncccn2)CC1`, the “hERG current change (%, negative = inhibition) at 1uM” value falls from 9.55% to 2.78%.

First: Cc1oc2c(CN3CCCC3)c(O)ccc2c(=O)c1-c1ccccc1
Second: Cc1oc(-c2ccc(Cl)cc2)nc1CN1CCCN(C(=O)c2ccco2)CC1
The “hERG current change (%, negative = inhibition) at 1uM” value of the first is higher: -11.7% for the first, -57.4% for the second.

Going from `O=C(Cc1cccs1)Nc1cccc(-c2nnc(-c3ccco3)o2)c1` to `CN(Cc1cccs1)C(=O)c1ccc(S(=O)(=O)NCc2ccco2)cc1`, the “hERG current change (%, negative = inhibition) at 1uM” value falls from 14.5% to -8.37%.

Going from `CCC(CC)C(=O)N1N=C(c2ccc(NS(C)(=O)=O)cc2)CC1c1ccc(C)cc1` (stereo not drawn) to `Cc1ccc(NS(=O)(=O)c2sc3ccc(Cl)cc3c2C)cc1`, the “hERG current change (%, negative = inhibition) at 1uM” value rises from 3.33% to 12.1%.

Compared with `O=C(c1ccccc1F)N1CCN(C(=O)C2CC2)CC1`, `CC(Oc1ccccc1)C(=O)N1CCN(C(=O)C(C)Oc2ccccc2)CC1` (stereo not drawn) is higher in “hERG current change (%, negative = inhibition) at 1uM” value: 7.06% for the first, 13.6% for the second.

First: Cc1cc(C)n2nc(C(=O)OCC(=O)NCc3ccc(Cl)cc3)nc2n1
Second: O=C(COC(=O)c1cc([N+](=O)[O-])ccc1N1CCOCC1)NCCc1ccccc1
The “hERG current change (%, negative = inhibition) at 1uM” value of the first is lower: -0.25% for the first, 2.46% for the second.

Compared with `CCn1c(SCC(=O)Nc2nnc(C)s2)nnc1-c1ccco1`, `Cc1nnc(NC(=O)CN2CCN(Cc3ccccc3Cl)CC2)s1` is higher in “hERG current change (%, negative = inhibition) at 1uM” value: -4.35% for the first, 8.84% for the second.

Compared with `CCOC(=O)c1sc2cc([N+](=O)[O-])cc(SCC(=O)OC)c2c1N`, `CCOC(=O)CSc1n[nH]c(=S)s1` is higher in “hERG current change (%, negative = inhibition) at 1uM” value: -1.61% for the first, 6.15% for the second.

First: COc1ccc(NC(=O)/C=C/c2ccc(F)cc2)cn1
Second: COc1ccc(NC(=O)/C(=C/c2cccnc2)NC(=O)c2cccs2)cc1
The “hERG current change (%, negative = inhibition) at 1uM” value of the first is lower: 7.64% for the first, 10.9% for the second.

Going from `C/C(=N/NC(=O)c1cc(-c2cccc([N+](=O)[O-])c2)n[nH]1)c1cccc(O)c1` to `CC(C)C(=O)Nc1cccc(NC(=O)c2cccc(F)c2)c1`, the “hERG current change (%, negative = inhibition) at 1uM” value falls from 15.5% to 12.5%.

First: O=S(=O)(Nc1ccc(-n2cccc2)cc1)c1ccc(F)cc1
Second: Cc1ccc(Nc2ccncc2S(N)(=O)=O)cc1
The “hERG current change (%, negative = inhibition) at 1uM” value of the first is higher: 14% for the first, 5.89% for the second.

Compared with `O=S(=O)(c1cccc(NC(=S)N2CCN(c3cccc(Cl)c3)CC2)c1)C(F)F`, `O=C(CN1CCN(c2ccccc2)CC1)N1CCc2[nH]c3ccccc3c2C1` is lower in “hERG current change (%, negative = inhibition) at 1uM” value: 3.04% for the first, -9.44% for the second.

Going from `Cc1cc(NC(C)c2ccccc2)n2ncc(-c3ccccc3)c2n1` (stereo not drawn) to `COc1cc2ncnc(N[C@H](C)c3ccccc3)c2cc1OC`, the “hERG current change (%, negative = inhibition) at 1uM” value falls from 14% to 2.27%.

First: O=C(c1ccc2ncsc2c1)N1CCCCC1
Second: CC(NC(=O)CSc1nnc2n1CCCCC2)c1ccccc1Cl (stereo not drawn)
The “hERG current change (%, negative = inhibition) at 1uM” value of the first is higher: 14.4% for the first, 4.87% for the second.

Compared with `CCc1cc2c(NCc3ccco3)ncnc2s1.Cl`, `Cc1cc2c(Nc3cccc(O)c3)ncnc2s1.Cl` is higher in “hERG current change (%, negative = inhibition) at 1uM” value: -0.964% for the first, 8.12% for the second.

First: CC(=O)c1sc(NC(=O)CCS(=O)(=O)c2ccc(C)cc2)nc1C
Second: Cc1cccc(NC(=O)c2nc(S(=O)(=O)Cc3ccccc3)ncc2Cl)c1
The “hERG current change (%, negative = inhibition) at 1uM” value of the first is higher: 12.8% for the first, 9.54% for the second.

Going from `CC(C)CCC(C(=O)O)C(C)CC(=O)NC1CCCCC1` (stereo not drawn) to `COCCN(C(=O)c1snc(C(N)=O)c1N)C(C(=O)NC1CCCCC1)c1ccc(N(C)C)cc1` (stereo not drawn), the “hERG current change (%, negative = inhibition) at 1uM” value rises from 1.26% to 7.59%.

Compared with `Cc1nnc(Sc2cc(C(=O)NCCCN(C)Cc3ccccc3)c3ccccc3n2)s1`, `COCCCN(C(=O)c1cc(-c2ccco2)nc2ccccc12)c1c(N)n(Cc2ccccc2)c(=O)[nH]c1=O` is higher in “hERG current change (%, negative = inhibition) at 1uM” value: -30.7% for the first, -1.33% for the second.

Compared with `COC(=O)C1=C(C)NC(=O)NC1c1ccc2c(c1)OCO2` (stereo not drawn), `Cc1cc(=O)oc2cc(OC(C)C(=O)N3CCOCC3)ccc12` (stereo not drawn) is lower in “hERG current change (%, negative = inhibition) at 1uM” value: 21.7% for the first, 11.2% for the second.

Going from `Cc1c(C=O)c(C=O)c(C)n1Cc1ccccc1` to `c1ccc(CSc2ncnc3sccc23)cc1`, the “hERG current change (%, negative = inhibition) at 1uM” value falls from 10.2% to 2.78%.

Going from `CCc1ccccc1OCCCCCNCCO` to `COc1ccccc1/C=C/C=N/NC(=O)c1cnccn1`, the “hERG current change (%, negative = inhibition) at 1uM” value rises from 3.29% to 32.2%.

First: Cc1cc(NC(=O)COC(=O)C(Nc2ccc(C(F)(F)F)cc2Cl)C(C)C)no1 (stereo not drawn)
Second: CCOC(=O)c1c(NC(=O)c2cc3n(n2)C(C(F)(F)F)CC(c2ccccc2)N3)sc(C)c1C (stereo not drawn)
The “hERG current change (%, negative = inhibition) at 1uM” value of the first is higher: 19.6% for the first, 5.44% for the second.

Going from `O=C1CCN(C(=O)Nc2cccc(Cl)c2)N1` to `O=C(Cn1ncc2c(=O)oc3ccccc3c21)N1CCN(c2ccccn2)CC1`, the “hERG current change (%, negative = inhibition) at 1uM” value falls from 20% to -19.9%.

First: CC(C)CC(NC(=O)C1CCC(C)CC1)C(=O)NCc1cccnc1 (stereo not drawn)
Second: COC(=O)C1=C(c2ccc(Cl)c(C(F)(F)F)c2)C[C@@H]2CC[C@H]1N2C(=O)N1CCOCC1
The “hERG current change (%, negative = inhibition) at 1uM” value of the first is lower: 4.53% for the first, 11.4% for the second.

First: S=c1[nH]c2ccccc2n1CCOc1ccccc1
Second: Oc1cccc(/C=N/NP(=S)(c2ccccc2)c2ccccc2)c1
The “hERG current change (%, negative = inhibition) at 1uM” value of the first is higher: 13.4% for the first, -5.2% for the second.

First: C=CCN(CC=C)S(=O)(=O)c1ccc(NC(=S)NC(=O)/C=C/c2ccccc2)cc1
Second: O=P(c1ccccc1)(c1ccccc1)C(O)c1ccccn1 (stereo not drawn)
The “hERG current change (%, negative = inhibition) at 1uM” value of the first is lower: 0.318% for the first, 11.7% for the second.

Going from `COc1ccccc1N1C(=O)C2C(C(=O)c3ccccc3)=NN(c3ccccc3)C2C1=O` (stereo not drawn) to `Cc1cc(N2CCOCC2)nc(SCC(=O)c2ccccc2)n1`, the “hERG current change (%, negative = inhibition) at 1uM” value falls from 9.35% to 4.69%.

First: NC(N)=N/N=C/c1ccc(OCc2ccc(Cl)cc2Cl)cc1
Second: COc1cccc(-c2nnc3n2N=C(C(C)(C)C)CS3)c1
The “hERG current change (%, negative = inhibition) at 1uM” value of the first is higher: 1.54% for the first, -9.48% for the second.

First: Cc1sc(NC(=O)c2ccco2)c(C(c2ccc(F)cc2)N2CCN(C)CC2)c1C (stereo not drawn)
Second: N#CC1=C(N)N(c2ccc(F)cc2)C(=O)C1
The “hERG current change (%, negative = inhibition) at 1uM” value of the first is lower: 0.441% for the first, 9.83% for the second.

Going from `COc1ccc(OC)c(C2C(C#N)=C(N)Oc3cc(C)[nH]c(=O)c32)c1` (stereo not drawn) to `CC(c1ccccc1)C1C(C#N)=C(N)OC2=C1C(=O)CC(C)(C)C2` (stereo not drawn), the “hERG current change (%, negative = inhibition) at 1uM” value falls from 14.8% to -23.8%.

Compared with `CSc1cccc(NC(=S)N(CCN(C)C)C(C)c2ccncc2)c1` (stereo not drawn), `CCc1nc2sc(C#N)c(N)c2c2c1CCCC2` is higher in “hERG current change (%, negative = inhibition) at 1uM” value: -1.28% for the first, 13.7% for the second.
